Experimental data from paper PMC10476561.
Read-outs that look alike come from different tables or passages of the source. Results are given in words; binding and its absence hold for the method and conditions named. Some results given as binding are weak or reduced against the parent protein; the word gives no strength. For some assays here: Where a sequence is shown, tags or fusion partners need not be part of it.

Sequences of proteins named here, by UniProt entry; tags and fusion partners are left off. A change or cut given only in a name is not applied to a line headed by its entry. Residues count along the entry.
UniProt Q05086: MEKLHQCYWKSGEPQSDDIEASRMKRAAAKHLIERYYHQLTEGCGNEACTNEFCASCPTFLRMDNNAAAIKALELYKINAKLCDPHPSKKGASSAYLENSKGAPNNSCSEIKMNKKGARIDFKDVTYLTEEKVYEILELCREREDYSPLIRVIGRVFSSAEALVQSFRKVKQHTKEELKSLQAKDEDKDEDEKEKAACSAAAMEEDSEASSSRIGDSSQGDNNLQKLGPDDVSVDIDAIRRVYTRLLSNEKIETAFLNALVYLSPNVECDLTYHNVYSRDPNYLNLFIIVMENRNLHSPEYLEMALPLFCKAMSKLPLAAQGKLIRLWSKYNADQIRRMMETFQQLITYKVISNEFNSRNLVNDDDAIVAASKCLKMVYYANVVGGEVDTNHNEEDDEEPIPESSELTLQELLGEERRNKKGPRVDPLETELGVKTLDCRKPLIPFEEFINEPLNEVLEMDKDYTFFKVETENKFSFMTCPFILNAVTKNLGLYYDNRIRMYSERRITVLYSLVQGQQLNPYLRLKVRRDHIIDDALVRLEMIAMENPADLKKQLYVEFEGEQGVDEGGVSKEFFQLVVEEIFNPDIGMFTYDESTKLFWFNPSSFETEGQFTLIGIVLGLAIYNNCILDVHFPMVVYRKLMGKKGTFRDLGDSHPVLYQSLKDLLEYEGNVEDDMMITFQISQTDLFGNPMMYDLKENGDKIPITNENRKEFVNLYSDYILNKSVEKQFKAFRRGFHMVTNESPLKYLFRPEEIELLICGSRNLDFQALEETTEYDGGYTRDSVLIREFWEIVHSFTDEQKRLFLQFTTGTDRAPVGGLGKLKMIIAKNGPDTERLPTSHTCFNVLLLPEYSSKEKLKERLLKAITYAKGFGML
GST-E6AP (1-280), N-terminal region of E6AP: residues 1-280 of Q05086
UniProt P05120: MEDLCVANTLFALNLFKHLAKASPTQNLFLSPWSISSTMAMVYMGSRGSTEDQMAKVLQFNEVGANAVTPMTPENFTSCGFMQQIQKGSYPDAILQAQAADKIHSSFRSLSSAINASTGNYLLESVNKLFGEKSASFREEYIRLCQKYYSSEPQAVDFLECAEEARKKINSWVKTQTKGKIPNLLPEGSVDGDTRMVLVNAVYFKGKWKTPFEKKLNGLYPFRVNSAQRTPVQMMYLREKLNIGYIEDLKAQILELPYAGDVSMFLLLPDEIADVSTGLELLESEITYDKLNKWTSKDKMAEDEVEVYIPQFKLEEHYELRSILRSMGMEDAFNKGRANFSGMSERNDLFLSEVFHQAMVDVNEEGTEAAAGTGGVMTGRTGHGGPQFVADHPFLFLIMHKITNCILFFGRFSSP
UniProt P49736: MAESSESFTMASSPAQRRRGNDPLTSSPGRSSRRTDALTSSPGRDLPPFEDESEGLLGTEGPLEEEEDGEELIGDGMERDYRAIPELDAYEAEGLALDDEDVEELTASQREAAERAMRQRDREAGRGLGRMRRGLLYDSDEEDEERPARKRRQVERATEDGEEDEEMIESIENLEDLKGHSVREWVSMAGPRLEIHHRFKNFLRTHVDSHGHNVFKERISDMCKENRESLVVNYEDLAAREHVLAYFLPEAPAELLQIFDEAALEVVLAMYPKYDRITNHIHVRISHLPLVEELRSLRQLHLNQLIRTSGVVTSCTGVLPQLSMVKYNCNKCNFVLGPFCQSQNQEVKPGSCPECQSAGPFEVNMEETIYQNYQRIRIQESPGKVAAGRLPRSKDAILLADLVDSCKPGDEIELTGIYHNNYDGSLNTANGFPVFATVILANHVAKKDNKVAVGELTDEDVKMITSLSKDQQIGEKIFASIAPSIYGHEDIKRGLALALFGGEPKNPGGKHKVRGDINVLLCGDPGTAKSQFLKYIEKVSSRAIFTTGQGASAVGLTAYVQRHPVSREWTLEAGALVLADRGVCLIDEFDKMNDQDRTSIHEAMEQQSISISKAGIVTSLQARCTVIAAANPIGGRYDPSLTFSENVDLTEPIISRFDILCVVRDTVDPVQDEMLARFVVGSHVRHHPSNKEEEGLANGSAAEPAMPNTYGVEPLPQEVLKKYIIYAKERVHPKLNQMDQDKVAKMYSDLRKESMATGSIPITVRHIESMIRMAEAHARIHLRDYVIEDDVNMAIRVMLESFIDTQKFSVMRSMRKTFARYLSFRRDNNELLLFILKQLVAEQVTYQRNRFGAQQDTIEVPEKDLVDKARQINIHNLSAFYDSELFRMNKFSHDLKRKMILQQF

B1: MCM6 (yeast two-hybrid prey) (protein, UniProt Q14566 1-821)
chain: MDLAAAAEPGAGSQHLEVRDEVAEKCQKLFLDFLEEFQSSDGEIKYLQLAEELIRPERNTLVVSFVDLEQFNQQLSTTIQEEFYRVYPYLCRALKTFVKDRKEIPLAKDFYVAFQDLPTRHKIRELTSSRIGLLTRISGQVVRTHPVHPELVSGTFLCLDCQTVIRDVEQQFKYTQPNICRNPVCANRRRFLLDTNKSRFVDFQKVRIQETQAELPRGSIPRSLEVILRAEAVESAQAGDKCDFTGTLIVVPDVSKLSTPGARAETNSRVSGVDGYETEGIRGLRALGVRDLSYRLVFLACCVAPTNPRFGGKELRDEEQTAESIKNQMTVKEWEKVFEMSQDKNLYHNLCTSLFPTIHGNDEVKRGVLLMLFGGVPKTTGEGTSLRGDINVCIVGDPSTAKSQFLKHVEEFSPRAVYTSGKASSAAGLTAAVVRDEESHEFVIEAGALMLADNGVCCIDEFDKMDVRDQVAIHEAMEQQTISITKAGVKATLNARTSILAAANPISGHYDRSKSLKQNINLSAPIMSRFDLFFILVDECNEVTDYAIARRIVDLHSRIEESIDRVYSLDDIRRYLLFARQFKPKISKESEDFIVEQYKHLRQRDGSGVTKSSWRITVRQLESMIRLSEAMARMHCCDEVQPKHVKEAFRLLNKSIIRVETPDVNLDQEEEIQMEVDEGAGGINGHADSPAPVNGINGYNEDINQESAPKASLRLGFSEYCRISNLIVLHLRKVEEEEDESALKRSELVNWYLKEIESEIDSEEELINKKRIIEKVIHRLTHYDHVLIELTQAGLKGSTEGSESYEEDPYLVVNPNYLLED
B2: His6-MCM6 (1-345), N terminus of MCM6 (domain or fragment, UniProt Q14566 1-345)
chain: MDLAAAAEPGAGSQHLEVRDEVAEKCQKLFLDFLEEFQSSDGEIKYLQLAEELIRPERNTLVVSFVDLEQFNQQLSTTIQEEFYRVYPYLCRALKTFVKDRKEIPLAKDFYVAFQDLPTRHKIRELTSSRIGLLTRISGQVVRTHPVHPELVSGTFLCLDCQTVIRDVEQQFKYTQPNICRNPVCANRRRFLLDTNKSRFVDFQKVRIQETQAELPRGSIPRSLEVILRAEAVESAQAGDKCDFTGTLIVVPDVSKLSTPGARAETNSRVSGVDGYETEGIRGLRALGVRDLSYRLVFLACCVAPTNPRFGGKELRDEEQTAESIKNQMTVKEWEKVFEMSQDKN
B3: ALDH1A2 (yeast two-hybrid prey) (protein, UniProt O94788 1-518)
chain: MTSSKIEMPGEVKADPAALMASLHLLPSPTPNLEIKYTKIFINNEWQNSESGRVFPVYNPATGEQVCEVQEADKADIDKAVQAARLAFSLGSVWRRMDASERGRLLDKLADLVERDRAVLATMESLNGGKPFLQAFYVDLQGVIKTFRYYAGWADKIHGMTIPVDGDYFTFTRHEPIGVCGQIIPWNFPLLMFAWKIAPALCCGNTVVIKPAEQTPLSALYMGALIKEAGFPPGVINILPGYGPTAGAAIASHIGIDKIAFTGSTEVGKLIQEAAGRSNLKRVTLELGGKSPNIIFADADLDYAVEQAHQGVFFNQGQCCTAGSRIFVEESIYEEFVRRSVERAKRRVVGSPFDPTTEQGPQIDKKQYNKILELIQSGVAEGAKLECGGKGLGRKGFFIEPTVFSNVTDDMRIAKEEIFGPVQEILRFKTMDEVIERANNSDFGLVAAVFTNDINKALTVSSAMQAGTVWINCYNALNAQSPFGGFKMSGNGREMGEFGLREYSEVKTVTVKIPQKNS
B4: MSTO1 (yeast two-hybrid prey) (protein, UniProt Q9BUK6 1-570)
chain: MAGGAREVLTLQLGHFAGFVGAHWWNQQDAALGRATDSKEPPGELCPDVLYRTGRTLHGQETYTPRLILMDLKGSLSSLKEEGGLYRDKQLDAAIAWQGKLTTHKEELYPKNPYLQDFLSAEGVLSSDGVWRVKSIPNGKGSSPLPTATTPKPLIPTEASIRVWSDFLRVHLHPRSICMIQKYNHDGEAGRLEAFGQGESVLKEPKYQEELEDRLHFYVEECDYLQGFQILCDLHDGFSGVGAKAAELLQDEYSGRGIITWGLLPGPYHRGEAQRNIYRLLNTAFGLVHLTAHSSLVCPLSLGGSLGLRPEPPVSFPYLHYDATLPFHCSAILATALDTVTVPYRLCSSPVSMVHLADMLSFCGKKVVTAGAIIPFPLAPGQSLPDSLMQFGGATPWTPLSACGEPSGTRCFAQSVVLRGIDRACHTSQLTPGTPPPSALHACTTGEEILAQYLQQQQPGVMSSSHLLLTPCRVAPPYPHLFSSCSPPGMVLDGSPKGAAVESIPVFGALCSSSSLHQTLEALARDLTKLDLRRWASFMDAGVEHDDVAELLQELQSLAQCYQGGDSLVD
B5: IL24 (yeast two-hybrid prey) (protein, UniProt Q13007 1-206)
chain: MNFQQRLQSLWTLARPFCPPLLATASQMQMVVLPCLGFTLLLWSQVSGAQGQEFHFGPCQVKGVVPQKLWEAFWAVKDTMQAQDNITSARLLQQEVLQNVSDAESCYLVHTLLEFYLKTVFKNYHNRTVEVRTLKSFSTLANNFVLIVSQLQPSQENEMFSIRDSAHRRFLLFRRAFKQLDVEAALTKALGEVDILLTWMQKFYKL
B6: CRP (yeast two-hybrid prey) (protein, UniProt P02741 1-224)
chain: MEKLLCFLVLTSLSHAFGQTDMSRKAFVFPKESDTSYVSLKAPLTKPLKAFTVCLHFYTELSSTRGYSIFSYATKRQDNEILIFWSKDIGYSFTVGGSEILFEVPEVTVAPVHICTSWESASGIVEFWVDGKPRVRKSLKKGYTVGAEASIILGQEQDSFGGNFEGSQSLVGDIGNVNMWDFVLSPDEINTIYLGGPFSPNVLNWRALKYEVQGEVFTKPQLWP
B7: His6-MCM6 (protein, UniProt Q14566 1-821)
chain: MDLAAAAEPGAGSQHLEVRDEVAEKCQKLFLDFLEEFQSSDGEIKYLQLAEELIRPERNTLVVSFVDLEQFNQQLSTTIQEEFYRVYPYLCRALKTFVKDRKEIPLAKDFYVAFQDLPTRHKIRELTSSRIGLLTRISGQVVRTHPVHPELVSGTFLCLDCQTVIRDVEQQFKYTQPNICRNPVCANRRRFLLDTNKSRFVDFQKVRIQETQAELPRGSIPRSLEVILRAEAVESAQAGDKCDFTGTLIVVPDVSKLSTPGARAETNSRVSGVDGYETEGIRGLRALGVRDLSYRLVFLACCVAPTNPRFGGKELRDEEQTAESIKNQMTVKEWEKVFEMSQDKNLYHNLCTSLFPTIHGNDEVKRGVLLMLFGGVPKTTGEGTSLRGDINVCIVGDPSTAKSQFLKHVEEFSPRAVYTSGKASSAAGLTAAVVRDEESHEFVIEAGALMLADNGVCCIDEFDKMDVRDQVAIHEAMEQQTISITKAGVKATLNARTSILAAANPISGHYDRSKSLKQNINLSAPIMSRFDLFFILVDECNEVTDYAIARRIVDLHSRIEESIDRVYSLDDIRRYLLFARQFKPKISKESEDFIVEQYKHLRQRDGSGVTKSSWRITVRQLESMIRLSEAMARMHCCDEVQPKHVKEAFRLLNKSIIRVETPDVNLDQEEEIQMEVDEGAGGINGHADSPAPVNGINGYNEDINQESAPKASLRLGFSEYCRISNLIVLHLRKVEEEEDESALKRSELVNWYLKEIESEIDSEEELINKKRIIEKVIHRLTHYDHVLIELTQAGLKGSTEGSESYEEDPYLVVNPNYLLED
B8: His6-MCM3 (protein, UniProt P25205 1-808)
chain: MAGTVVLDDVELREAQRDYLDFLDDEEDQGIYQSKVRELISDNQYRLIVNVNDLRRKNEKRANRLLNNAFEELVAFQRALKDFVASIDATYAKQYEEFYVGLEGSFGSKHVSPRTLTSCFLSCVVCVEGIVTKCSLVRPKVVRSVHYCPATKKTIERRYSDLTTLVAFPSSSVYPTKDEENNPLETEYGLSVYKDHQTITIQEMPEKAPAGQLPRSVDVILDDDLVDKAKPGDRVQVVGTYRCLPGKKGGYTSGTFRTVLIACNVKQMSKDAQPSFSAEDIAKIKKFSKTRSKDIFDQLAKSLAPSIHGHDYVKKAILCLLLGGVERDLENGSHIRGDINILLIGDPSVAKSQLLRYVLCTAPRAIPTTGRGSSGVGLTAAVTTDQETGERRLEAGAMVLADRGVVCIDEFDKMSDMDRTAIHEVMEQGRVTIAKAGIHARLNARCSVLAAANPVYGRYDQYKTPMENIGLQDSLLSRFDLLFIMLDQMDPEQDREISDHVLRMHRYRAPGEQDGDAMPLGSAVDILATDDPNFSQEDQQDTQIYEKHDNLLHGTKKKKEKMVSAAFMKKYIHVAKIIKPVLTQESATYIAEEYSRLRSQDSMSSDTARTSPVTARTLETLIRLATAHAKARMSKTVDLQDAEEAVELVQYAYFKKVLEKEKKRKKRSEDESETEDEEEKSQEDQEQKRKRRKTRQPDAKDGDSYDPYDFSDTEEEMPQVHTPKTADSQETKESQKVELSESRLKAFKVALLDVFREAHAQSIGMNRLTESINRDSEEPFSSVEIQAALSKMQDDNQVMVSEGIIFLI
B9: His6-MCM5 (protein, UniProt P33992 1-734)
chain: MSGFDDPGIFYSDSFGGDAQADEGQARKSQLQRRFKEFLRQYRVGTDRTGFTFKYRDELKRHYNLGEYWIEVEMEDLASFDEDLADYLYKQPAEHLQLLEEAAKEVADEVTRPRPSGEEVLQDIQVMLKSDASPSSIRSLKSDMMSHLVKIPGIIIAASAVRAKATRISIQCRSCRNTLTNIAMRPGLEGYALPRKCNTDQAGRPKCPLDPYFIMPDKCKCVDFQTLKLQELPDAVPHGEMPRHMQLYCDRYLCDKVVPGNRVTIMGIYSIKKFGLTTSRGRDRVGVGIRSSYIRVLGIQVDTDGSGRSFAGAVSPQEEEEFRRLAALPNVYEVISKSIAPSIFGGTDMKKAIACLLFGGSRKRLPDGLTRRGDINLLMLGDPGTAKSQLLKFVEKCSPIGVYTSGKGSSAAGLTASVMRDPSSRNFIMEGGAMVLADGGVVCIDEFDKMREDDRVAIHEAMEQQTISIAKAGITTTLNSRCSVLAAANSVFGRWDETKGEDNIDFMPTILSRFDMIFIVKDEHNEERDVMLAKHVITLHVSALTQTQAVEGEIDLAKLKKFIAYCRVKCGPRLSAEAAEKLKNRYIIMRSGARQHERDSDRRSSIPITVRQLEAIVRIAEALSKMKLQPFATEADVEEALRLFQVSTLDAALSGTLSGVEGFTSQEDQEMLSRIEKQLKRRFAIGSQVSEHSIIKDFTKQKYPEHAIHKVLQLMLRRGEIQHRMQRKVLYRLK

Legend:
[1] = molecular target: human E6AP (yeast two-hybrid bait) (human) (UniProt Q05086); experiment: two-hybrid; screen with human E6AP as bait; survival on SD-4 (deficient in Ura, His, Leu and Trp) and X-Gal staining; hits identified by Sanger sequencing; MCM6 validated in yeast cells
GST-E6AP (human) [2] = molecular target: GST-E6AP (human) (UniProt Q05086); experiment: pull-down; GST pull-down: 10 μg purified His6-tagged protein and 10 μg GST-tagged protein with Glutathione Sepharose 4B, 4 °C overnight; 20 mM Tris-Cl, 100 mM NaCl, 5 mM MgCl2, 1 mM EDTA, 1 mM DTT, 0.5% NP-40, 10 mg/mL BSA, pH 8.0; five washes; blots with anti-GST and anti-His; both purified
[3] = molecular target: GST-E6AP (1-280), N-terminal region of E6AP (human) (UniProt Q05086); experiment: as above
GST-E6AP (human) [4] = molecular target: GST-E6AP (human) (UniProt Q05086); experiment: as above; remark: listed apart in the source

Molecule	binding [1]	also measured
SERPINB2 (yeast two-hybrid prey) (from UniProt P05120 1-415)	binds	
His6-MCM2 (from UniProt P49736 1-904)		binding (GST-E6AP (human) [2]): binds
B1	binds	
B2		binding [3]: binds
B3	binds	
B4	binds	
B5	binds	
B6	binds	
B7		binding (GST-E6AP (human) [4]): binds
B8		binding (GST-E6AP (human) [4]): no binding (tested: 10 μg of each protein)
B9		binding (GST-E6AP (human) [4]): no binding (tested: 10 μg of each protein)
